The list shows a part of the results. Sequences were assembled here from the parent chain. Inactive controls read about 0.05.
B1: TEV protease; numbered along this chain (parent)
chain: MGESLFKGPRDYNPISSSICHLTNESDGHTTSLYGIGFGPFIITNKHLFRRNNGTLVVQSLHGVFKVKDTTTLQQHLVDGRDMIIIRMPKDFPPFPQKLKFREPQREERICLVTTNFQTKSMSSMVSDTSCTFPSGDGIFWKHWIQTKDGQCGSPLVSTRDGFIVGIHSASNFTNTNNYFTSVPKNFMELLTNQEAQQWVSGWRLNADSVLWGGHKVFMVKPEEPFQPVKEATQL

Variants of: B1
Experiment: raw area under fraction-flipped curve 0-4 h after induction (AUC4h, not background-subtracted), DNA-recorder readout of cleavage of the substrate (dimensionless); higher = more cleavage of the substrate by the protease variant
Details: temperature: 34 °C; time window: 0-4 h after rhamnose induction
Procedure: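 In vivo DNA recorder in E. coli TOP10(DE3) ΔrhaA at 34 °C. Each TEVp single-site mutant (parent TEVp 0) is paired with a single-site variant of the 7-mer TEVs (canonical ENLYFQ|S). The substrate sits between flexible linkers in a Bxb1-sfGFP-TEVs-SsrA fusion, so cleavage stabilises Bxb1 and speeds flipping of a recombination array, read by NGS. The value is the raw area under the fraction-flipped curve over 0-4 h after rhamnose induction (AUC4h), with ≥20 reads per time point. It is not background-subtracted; inactive controls average about 0.047.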
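Further: Bxb1 expression induced with 0.2% (w/v) L-rhamnose at OD600 near 0.5, cultures sampled hourly, flipped fraction per protease–substrate barcode pair counted by paired-end Illumina sequencing.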

Variant	area with substrate ENLYFAS	area with substrate ENLYFCS	area with substrate ENLYFFS	area with substrate ENLYFGS	area with substrate ENLYFHS	area with substrate ENLYFIS	area with substrate ENLYFKS	area with substrate ENLYFLS	area with substrate ENLYFMS	area with substrate ENLYFPS	area with substrate ENLYFRS	area with substrate ENLYFSS	area with substrate ENLYFWS	area with substrate ENLYFYS	area with substrate ENLYFES	area with substrate ENLYFNS	area with substrate ENLYFTS	area with substrate ENLYFVS	area with substrate ENLYFDS
P104Y	0.0529	0.0495	0.0686	0.0578	0.0589	0.0502	0.0478	0.0262	0.0576	0.0398	0.037	0.0498	0.0517	0.0436					
Q118G	0.0608	0.0669	0.0677			0.0586	0.0573	0.0675	0.0841	0.0632					0.0678	0.0706	0.0561	0.0846	
S169C	0.0566	0.0468	0.0566			0.0577	0.0655		0.0571	0.0581			0.0612	0.0605	0.0578	0.0466	0.0571	0.0771	0.0737
T115C	0.0576	0.0543	0.0811		0.0623	0.058	0.0651	0.0689	0.067	0.0621	0.0591	0.0635	0.0634		0.0519	0.0769	0.0534		0.0699
S171G	0.0625		0.0402	0.0316	0.0427	0.0571				0.0603	0.0425				0.0649		0.057		0.047
T71A	0.0597	0.0567	0.0657	0.0721		0.0593	0.0638	0.0775	0.0611	0.059	0.0416	0.0638	0.0456	0.0604	0.0646	0.0527	0.0702	0.0568	
E108Y	0.0587				0.0636	0.0582	0.0612		0.0389		0.0581		0.0389		0.0596	0.0084	0.0565	0.0418	
V64N	0.0612	0.0592	0.0527			0.0556	0.0726		0.0468	0.0459	0.0608	0.0595			0.107	0.065	0.064	0.0601	
Q227M	0.0335	0.068			0.0662	0.0543		0.0563	0.071	0.0604	0.061	0.0552	0.0545	0.067	0.0654	0.0635	0.0657	0.054	0.0518
G213S	0.0728		0.0621		0.0469	0.0691	0.059		0.0603	0.0544		0.0571			0.0546	0.0633	0.0508		
V113N	0.0522	0.0574	0.0591		0.0618	0.0533	0.0452		0.0593	0.0509	0.0684	0.0446	0.0603	0.0487	0.0541	0.0327	0.0528	0.0358	0.042
L61A	0.0463	0.0613	0.0567	0.0592	0.0809	0.0716	0.0682	0.0571	0.0671	0.0659	0.0589	0.0454	0.0624	0.053	0.077	0.0723	0.0414	0.0559	
G2Q	0.0414	0.0839	0.0703			0.0413	0.059	0.0724	0.0798					0.0558	0.062		0.0337	0.0623	0.0505
D69Q	0.0504		0.0714	0.0535		0.0559	0.0587	0.0458	0.0563	0.0585		0.0605	0.0609	0.0691	0.0643		0.0596	0.0723	0.064
Q227P	0.0069	0.0731	0.0545				0.0634			0.0561	0.0385	0.0627	0.0462	0.0394		0.0655			
W144Q	0.0579	0.0656	0.085			0.0647		0.0647	0.063	0.0451	0.0579	0.0699		0.066		0.0722	0.0639		
P89F	0.0506		0.103			0.052				0.051	0.0613				0.0672		0.0643	0.0457	0.0441
S4P	0.06	0.0646	0.0666		0.0674	0.0614	0.06		0.0709	0.0576	0.0553	0.0763	0.0651		0.0674	0.0645	0.0536	0.0508	
K230G	0.0727		0.0694	0.0744		0.0593	0.0606	0.0442		0.0606	0.0592	0.0618	0.0622		0.0541	0.093	0.0539	0.0642	
N52Y	0.066	0.0532	0.0588	0.0556		0.0675	0.0638		0.0596	0.0614	0.0522	0.0559		0.0616	0.0628	0.0561	0.0481	0.0768	0.0619
E231G	0.0613	0.0669	0.0795	0.0593		0.06	0.0611	0.0632	0.0686	0.0539	0.0496	0.0533	0.0541		0.0604	0.0708	0.0598		0.06
T129P	0.072	0.053	0.131	0.0627	0.0528	0.0543	0.0647	0.0754	0.0801	0.0478		0.064	0.0358	0.0609	0.0613	0.0584	0.0547	0.0618	0.0655
V210D	0.0548	0.0757	0.0611	0.0551	0.083	0.0596			0.0615	0.0598	0.063	0.0597		0.0455	0.0609	0.059		0.0535	0.0696
M188L	0.0668	0.0602	0.0635			0.0687	0.0627			0.0595		0.0686					0.0662		
G63N	0.0608	0.0728	0.0749	0.061		0.0445				0.0579	0.0582	0.0501		0.0646	0.0582		0.0533		

— the supplement of paper PMC12217912
